Results as given in publication PMC11876325.
These are yes or no findings as the source states them, for the method shown. For some assays here: In cells and extracts the contact can be indirect. Some binding calls cover weakened binding; strength is not graded here.

The chains behind the UniProt entries cited, without tags or fusion partners.
UniProt P25454: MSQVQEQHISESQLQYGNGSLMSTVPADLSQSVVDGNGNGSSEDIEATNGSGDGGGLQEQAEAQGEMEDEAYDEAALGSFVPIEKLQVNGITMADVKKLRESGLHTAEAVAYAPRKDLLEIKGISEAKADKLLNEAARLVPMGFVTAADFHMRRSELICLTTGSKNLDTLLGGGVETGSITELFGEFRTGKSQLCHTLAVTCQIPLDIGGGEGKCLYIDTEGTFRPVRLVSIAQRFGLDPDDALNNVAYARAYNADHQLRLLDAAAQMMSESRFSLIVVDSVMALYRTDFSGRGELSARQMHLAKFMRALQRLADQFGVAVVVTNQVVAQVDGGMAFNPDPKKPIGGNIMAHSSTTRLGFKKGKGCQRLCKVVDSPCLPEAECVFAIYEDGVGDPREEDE
UniProt P29469: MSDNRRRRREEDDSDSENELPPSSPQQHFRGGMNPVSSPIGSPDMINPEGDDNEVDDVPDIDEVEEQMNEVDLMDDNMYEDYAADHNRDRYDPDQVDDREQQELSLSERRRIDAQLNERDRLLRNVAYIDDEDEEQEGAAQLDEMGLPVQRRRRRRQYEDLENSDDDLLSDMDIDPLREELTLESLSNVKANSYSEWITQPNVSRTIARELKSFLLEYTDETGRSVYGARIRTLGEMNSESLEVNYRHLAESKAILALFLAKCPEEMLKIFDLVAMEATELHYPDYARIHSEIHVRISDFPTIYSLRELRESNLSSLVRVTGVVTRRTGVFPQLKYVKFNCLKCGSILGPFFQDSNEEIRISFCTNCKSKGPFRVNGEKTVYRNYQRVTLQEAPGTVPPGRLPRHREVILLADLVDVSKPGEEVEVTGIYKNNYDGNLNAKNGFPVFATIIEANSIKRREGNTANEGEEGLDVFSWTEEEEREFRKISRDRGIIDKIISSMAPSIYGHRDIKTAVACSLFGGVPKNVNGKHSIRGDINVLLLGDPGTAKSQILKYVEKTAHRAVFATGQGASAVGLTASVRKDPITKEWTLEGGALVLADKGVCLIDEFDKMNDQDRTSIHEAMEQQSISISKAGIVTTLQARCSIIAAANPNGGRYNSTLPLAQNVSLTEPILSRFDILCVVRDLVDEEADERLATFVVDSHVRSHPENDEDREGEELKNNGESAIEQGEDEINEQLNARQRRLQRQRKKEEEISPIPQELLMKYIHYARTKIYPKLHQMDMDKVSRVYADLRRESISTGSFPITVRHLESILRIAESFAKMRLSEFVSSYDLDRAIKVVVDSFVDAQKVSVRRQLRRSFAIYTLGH

T1: Rad55 (pGBD Rad55) (S. cerevisiae) (UniProt P38953)
T1 sequence: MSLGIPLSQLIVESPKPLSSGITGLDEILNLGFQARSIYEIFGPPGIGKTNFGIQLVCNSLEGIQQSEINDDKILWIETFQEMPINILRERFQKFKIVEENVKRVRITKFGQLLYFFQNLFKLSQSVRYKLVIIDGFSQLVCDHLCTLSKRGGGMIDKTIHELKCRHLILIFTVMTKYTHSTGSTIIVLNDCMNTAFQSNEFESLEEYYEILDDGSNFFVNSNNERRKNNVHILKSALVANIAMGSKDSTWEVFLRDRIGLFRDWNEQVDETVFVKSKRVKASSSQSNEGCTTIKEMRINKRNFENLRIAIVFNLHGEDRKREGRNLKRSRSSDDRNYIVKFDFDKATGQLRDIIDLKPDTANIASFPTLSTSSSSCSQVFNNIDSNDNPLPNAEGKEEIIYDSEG

T2: Rad57 (pGBD Rad57) (S. cerevisiae) (UniProt P25301)
T2 sequence: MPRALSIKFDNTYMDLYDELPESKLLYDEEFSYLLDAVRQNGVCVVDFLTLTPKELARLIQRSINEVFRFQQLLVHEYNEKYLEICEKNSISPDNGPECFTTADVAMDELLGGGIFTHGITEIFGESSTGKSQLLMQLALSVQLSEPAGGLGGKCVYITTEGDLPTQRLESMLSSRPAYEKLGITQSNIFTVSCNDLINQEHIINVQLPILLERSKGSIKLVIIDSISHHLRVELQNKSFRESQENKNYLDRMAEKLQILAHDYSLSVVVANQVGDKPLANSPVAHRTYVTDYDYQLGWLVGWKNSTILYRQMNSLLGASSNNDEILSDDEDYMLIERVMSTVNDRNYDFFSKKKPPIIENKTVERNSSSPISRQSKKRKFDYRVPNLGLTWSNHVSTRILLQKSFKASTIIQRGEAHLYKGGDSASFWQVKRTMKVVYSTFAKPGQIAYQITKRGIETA

T3: Psy3 (pGBD Psy3) (S. cerevisiae) (UniProt Q12318)
T3 sequence: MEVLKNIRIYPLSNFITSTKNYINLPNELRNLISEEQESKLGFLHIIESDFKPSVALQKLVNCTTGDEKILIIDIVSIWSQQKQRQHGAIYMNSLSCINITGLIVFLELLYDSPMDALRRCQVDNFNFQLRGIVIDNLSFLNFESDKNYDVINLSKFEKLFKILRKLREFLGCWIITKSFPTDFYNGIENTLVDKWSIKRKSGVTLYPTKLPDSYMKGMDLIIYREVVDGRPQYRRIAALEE

T4: Psy3-6HA (S. cerevisiae) (UniProt Q12318)
T4 sequence: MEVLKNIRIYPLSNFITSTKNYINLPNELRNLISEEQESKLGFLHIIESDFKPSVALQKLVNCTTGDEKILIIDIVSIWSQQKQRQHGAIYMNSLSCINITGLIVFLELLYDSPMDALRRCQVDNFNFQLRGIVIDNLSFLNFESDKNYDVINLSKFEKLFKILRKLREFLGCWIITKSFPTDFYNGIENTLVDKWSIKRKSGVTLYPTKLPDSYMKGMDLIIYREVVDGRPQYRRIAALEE

T5: Csm2-6HA (S. cerevisiae) (UniProt P40465)
T5 sequence: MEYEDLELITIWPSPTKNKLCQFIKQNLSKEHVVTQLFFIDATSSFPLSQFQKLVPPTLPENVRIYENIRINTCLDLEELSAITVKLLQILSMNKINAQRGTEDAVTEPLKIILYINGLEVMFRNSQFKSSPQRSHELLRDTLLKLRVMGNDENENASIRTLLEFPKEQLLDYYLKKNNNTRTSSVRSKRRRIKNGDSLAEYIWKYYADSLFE


What was measured:
[1] = molecular target: T1, Rad55 (pGBD Rad55) (S. cerevisiae); experiment: two-hybrid; GAL4 DNA-binding domain (pGBD) and GAL4 activation domain (pGAD) fusions co-transformed into PJ69-4α (also its rad51∆, rad55∆, csm2∆, shu1∆ and shu2∆ derivatives); growth on SC-L-W-H, 2-3 days, 30 °C
[2] = molecular target: T2, Rad57 (pGBD Rad57) (S. cerevisiae); experiment: as above
[3] = molecular target: Rad51 (two-hybrid fusion) (S. cerevisiae) (UniProt P25454); experiment: as above
[4] = molecular target: T3, Psy3 (pGBD Psy3) (S. cerevisiae); experiment: as above
[5] = molecular target: T4, Psy3-6HA (S. cerevisiae); experiment: co-IP; as a3, but cells arrested in G2/M with nocodazole
[6] = molecular target: T4, Psy3-6HA (S. cerevisiae); experiment: co-IP; 6HA-tagged protein precipitated from yeast lysate (NP-40 lysis buffer) on anti-HA magnetic beads overnight at 4 °C, washed with 50 mM Tris-HCl pH 7.5, 1 M NaCl, 1% NP-40; blot for endogenous Mcm4 or Orc2; cells arrested in G1 with α-factor or released into S or S/G2, with or without 0.03% …; with or without benzonase (25 U)
[7] = molecular target: T5, Csm2-6HA (S. cerevisiae); experiment: as above

| binding [1] | binding [2] | binding [3] | binding [4] | binding [5] | binding [6] | binding [7] | Molecule |
| --- | --- | --- | --- | --- | --- | --- | --- |
| no binding | no binding | no binding | binds |  |  |  | Mcm2 (pGAD Mcm2) (from UniProt P29469 1-868) |
|  |  |  |  | binds weakly | binds |  | Mcm4 (endogenous) (protein, UniProt P30665 1-933) MSQQSSSPTKEDNNSSSPVVPNPDSVPPQLSSPALFYSSSSSQGDIYGRNNSQNLSQGEGNIRAAIGSSPLNFPSSSQRQNSDVFQSQGRQGRIRSSASASGRSRYHSDLRSDRALPTSSSSLGRNGQNRVHMRRNDIHTSDLSSPRRIVDFDTRSGVNTLDTSSSSAPPSEASEPLRIIWGTNVSIQECTTNFRNFLMSFKYKFRKILDEREEFINNTTDEELYYIKQLNEMRELGTSNLNLDARNLLAYKQTEDLYHQLLNYPQEVISIMDQTIKDCMVSLIVDNNLDYDLDEIETKFYKVRPYNVGSCKGMRELNPNDIDKLINLKGLVLRSTPVIPDMKVAFFKCNVCDHTMAVEIDRGVIQEPARCERIDCNEPNSMSLIHNRCSFADKQVIKLQETPDFVPDGQTPHSISLCVYDELVDSCRAGDRIEVTGTFRSIPIRANSRQRVLKSLYKTYVDVVHVKKVSDKRLDVDTSTIEQELMQNKVDHNEVEEVRQITDQDLAKIREVAAREDLYSLLARSIAPSIYELEDVKKGILLQLFGGTNKTFTKGGRYRGDINILLCGDPSTSKSQILQYVHKITPRGVYTSGKGSSAVGLTAYITRDVDTKQLVLESGALVLSDGGVCCIDEFDKMSDSTRSVLHEVMEQQTISIAKAGIITTLNARSSILASANPIGSRYNPNLPVTENIDLPPPLLSRFDLVYLVLDKVDEKNDRELAKHLTNLYLEDKPEHISQDDVLPVEFLTMYISYAKEHIHPIITEAAKTELVRAYVGMRKMGDDSRSDEKRITATTRQLESMIRLAEAHAKMKLKNVVELEDVQEAVRLIRSAIKDYATDPKTGKIDMNLVQTGKSVIQRKLQEDLSREIMNVLKDQASDSMSFNELIKQINEHSQDRVESSDIQEALSRLQQEDKVIVLGEGVRRSVRLNNRV |
|  |  |  |  |  | binds | binds | Orc2 (endogenous) (protein, UniProt P32833 1-620) MLNGEDFVEHNDILSSPAKSRNVTPKRVDPHGERQLRRIHSSKKNLLERISLVGNERKNTSPDPALKPKTPSKAPRKRGRPRKIQEELTDRIKKDEKDTISSKKKRKLDKDTSGNVNEESKTSNNKQVMEKTGIKEKREREKIQVATTTYEDNVTPQTDDNFVSNSPEPPEPATPSKKSLTTNHDFTSPLKQIIMNNLKEYKDSTSPGKLTLSRNFTPTPVPKNKKLYQTSETKSASSFLDTFEGYFDQRKIVRTNAKSRHTMSMAPDVTREEFSLVSNFFNENFQKRPRQKLFEIQKKMFPQYWFELTQGFSLLFYGVGSKRNFLEEFAIDYLSPKIAYSQLAYENELQQNKPVNSIPCLILNGYNPSCNYRDVFKEITDLLVPAELTRSETKYWGNHVILQIQKMIDFYKNQPLDIKLILVVHNLDGPSIRKNTFQTMLSFLSVIRQIAIVASTDHIYAPLLWDNMKAQNYNFVFHDISNFEPSTVESTFQDVMKMGKSDTSSGAEGAKYVLQSLTVNSKKMYKLLIETQMQNMGNLSANTGPKRGTQRTGVELKLFNHLCAADFIASNEIALRSMLREFIEHKMANITKNNSGMEIIWVPYTYAELEKLLKTVLNTL |
